Results: PubChem BioAssay AID1458 (National Center for Advancing Translational Sciences (NCATS), 2008)
Out of some 210,000 compounds screened, about 5,900 (2.8%) were called active. The shares of active, inactive and inconclusive entries below differ from those in the screen. The call rests on the fitted dose curve; in most records, active means well fitted activation curve with a large enough effect; inconclusive means small, poorly fitted or top-dose-only effect; inactive means no such curve, though single readings can be large or run the other way. Potencies of inconclusive entries are doubtful fits and often do not repeat.

Test: qHTS Assay for Enhancers of SMN2 Splice Variant Expression; further: nearly all actives have a fitted effect of over 55% in size
Conditions: HEK293 SMN2-luciferase splicing reporter, luminescence, 30-36 h; series mostly up to 46.1 µM
Procedure, shortened: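 HEK293 cells carry an SMN2 minigene-luciferase reporter in which exon 7 inclusion puts luciferase in frame. Cells were seeded at 2000 cells/well, attached for 10-12 hours, then exposed to compounds for 30-36 hours at 37C before ONE-Glo luminescence.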
Potency means the concentration at half of the fitted maximal effect; tags describe the fitted curve by direction and shape.

SMILES	Potency
Cc1c(C(=O)Oc2ccc(F)cc2)sc2ncn(Cc3cccc(F)c3)c(=O)c12	inconclusive: 0.891 µM [activator, full curve, poor fit]
COc1ccc(C(=O)N2CC3(CC(c4cccc([N+](=O)[O-])c4)=NO3)C[C@H]2C(=O)NCC(N)=O)cc1 (stereo partly specified)	inconclusive: 35.5 µM [activator, single point]
O=C(NC(=S)Nc1ncccn1)c1ccccc1Cl	inconclusive: 0.126 µM [activator, full curve, poor fit]
C/C(=N\N=c1/sc2ccccc2n1C)c1ccccn1	inconclusive: 17.8 µM [activator, single point]
CC(C)(C)NC(=O)/C=C/c1cccs1	inactive
Cc1cc(=O)oc2cc(OC(C)C(=O)N3CCOCC3)ccc12 (stereo unspecified)	inactive
O=c1cc(N2CCCC2)[nH]c(=O)n1-c1ccc(Cl)cc1	inconclusive: 3.98 µM [activator, single point]
CCOC(=O)Cc1nn(C)c(=O)c2ccccc12	active: 5.62 µM
Cn1c(=O)c2c(nc(Oc3ccc(-c4ccccc4)cc3)n2C)n(C)c1=O	inconclusive: 0.794 µM [activator, full curve]
COc1ccc2c(c1OC)C(=O)N(c1ccccn1)C2	active: 11.2 µM
CCCn1cc(NC(=O)c2cc3n(n2)C(C(F)(F)F)CC(c2ccccc2)N3)cn1 (stereo unspecified)	inconclusive: 5.01 µM [activator, full curve, poor fit]
COc1ccc(CN(C(=O)c2ccccc2OC)C2CCS(=O)(=O)C2)cc1 (stereo unspecified)	inconclusive: 0.0126 µM [activator, full curve, poor fit]
COC(=O)c1nnn(-c2nonc2N)c1CSCCO	inconclusive: 0.141 µM [activator, full curve]
COc1ccc(-c2nn(C)c3sc(C(=O)Nc4cc(OC)c(OC)c(OC)c4)cc23)cc1OC	inconclusive: 17.8 µM [activator, partial curve, poor fit]
COC(=O)Cc1ccc(NC(=S)N2CCCC(C)C2)cc1 (stereo unspecified)	inconclusive: 14.1 µM [activator, single point]
Cc1ccc(C)c(S(=O)(=O)N/N=C/c2cccnc2)c1	inconclusive: 5.62 µM [activator, single point]
CCCN(CCC)C(=O)CC(c1ccccc1)c1cc(Br)ccc1O (stereo unspecified)	inconclusive: 0.0032 µM [activator, full curve, poor fit]
CCOC(=O)CNC(=O)CSc1ncnc2c1nnn2-c1ccc(F)cc1	inactive
COc1ccccc1NC(=O)C1=C(C)NC2=C(C(=O)CCC2)C1c1ccc(C)o1 (stereo unspecified)	inconclusive: 35.5 µM [activator, single point]
COc1ccc(Cl)cc1NC(=O)NC(C)C	inactive
Cn1cc(C(=O)N2CCc3ccccc32)cn1	inconclusive: 20 µM [activator, single point]
O=C(NCCCN1CCCC1=O)c1cncc(Br)c1	inconclusive: 0.0282 µM [activator, full curve]
O=C(CSCc1ccccc1)Nc1ccc(F)c(F)c1	inconclusive: 20 µM [activator, single point]
Cc1ccc(/C=N/NC(=O)c2cccs2)cc1[N+](=O)[O-]	inconclusive: 35.5 µM [activator, single point]

SMILES	Potency
CCOC(=O)c1sc(NC(=O)c2ccco2)c(C#N)c1C	inactive
O=C(Nc1noc2ccccc12)c1ccc(F)cc1	inconclusive: 35.5 µM [activator, single point]
CCCOC(=O)Nc1ccc(C(N)=O)cc1	inconclusive: 11.2 µM [activator, single point]
O=C(/C=C/c1ccco1)NC(=S)Nc1ccccn1	inconclusive: 15.8 µM [activator, partial curve, poor fit]
Cc1ccc(C)c(N2CCN(CCCNC(=O)c3ccc4nc(N5CCCCC5)sc4c3)CC2)c1	inconclusive: 31.6 µM [activator, single point]
CC(=O)c1c(C)n(-c2ccccc2)c2ccc(O)cc12	inconclusive: 0.0035 µM [activator, full curve, poor fit]
Cc1cc(C(=O)CSc2nnnn2-c2ccccc2)c(C)n1-c1ccc2c(c1)OCO2	inactive
COCCCN1CN=C(Nc2nc3ccccc3o2)NC1	inconclusive: 14.1 µM [activator, partial curve]
Cc1cc(C(=O)OCC(=O)Nc2ncc(C(F)(F)F)cc2Cl)c(C)o1	inconclusive: 31.6 µM [activator, single point]
O=C(Nc1ccc2nc3n(c(=O)c2c1)CCCCC3)c1ccccn1	active: 3.16 µM
CC1CCC2(CC1)NC(=O)N(CC(=O)Nc1ccc3c(c1)OCCO3)C2=O (stereo unspecified)	inconclusive: 20 µM [activator, partial curve, poor fit]
CCCCCC(=O)Nc1ccc(NC(=O)c2cc3ccccc3o2)c(OC)c1	inconclusive: 3.55 µM [activator, full curve]
O=C1NC(c2cccs2)Nc2sc3c(c21)CCCC3 (stereo unspecified)	inconclusive: 7.08 µM [activator, full curve, poor fit]
Cc1ccsc1/C=C1/SC(N2CCOCC2)=NC1=O	inconclusive: 35.5 µM [activator, single point]
CCOC(=O)CC(NC(=O)c1cc2cc(Cl)ccc2oc1=O)c1ccc(C)cc1 (stereo unspecified)	inactive
Cc1cc(C)cc(Oc2c(C(F)(F)F)oc3c(CN4CCCC(C)C4)c(O)ccc3c2=O)c1 (stereo unspecified)	inactive
CCOC(=O)c1c(C)[nH]c(C2=NNC(=Nc3ccc(OCC)cc3)SC2)c1C	inactive
CC(C)OC(=O)c1cc2c(ccn2C)n1CC(=O)N(Cc1ccccc1)c1ccccc1	inconclusive: 35.5 µM [activator, single point]
Cc1ccc(CN(C(=O)c2cc(=O)c3cc(Cl)c(C)cc3o2)C2CCS(=O)(=O)C2)cc1 (stereo unspecified)	inactive
CCOc1ccc(CN2C(=O)c3ccccc3Sc3ccc(C(=O)N4CCN(C)CC4)cc32)cc1	inactive
N#CCCn1cc(C(=O)Nc2ccc(C(=O)O)cc2)c(-c2cc3ccccc3o2)n1	inconclusive: 25.1 µM [activator, single point]
Cc1nn(C)cc1/C=C/C(=O)c1ccccc1	inactive
COc1ccc(S(=O)(=O)N2Cc3ccccc3CC2C(=O)Nc2nccs2)cc1 (stereo unspecified)	inconclusive: 28.2 µM [activator, single point]
Cc1ccc(S(=O)(=O)NC(=O)Nc2ccc(Cl)cn2)cc1	inconclusive: 35.5 µM [activator, single point]

SMILES	Potency
CCOc1ccc(NC(=O)CN(C)S(=O)(=O)c2ccc3c(c2)c(=O)n(C)c(=O)n3C)cc1	inactive
S=C(c1ccc(-c2ccc(Cl)c(Cl)c2)o1)N1CCOCC1	active: 11.2 µM
Cc1ccc2nc(NCc3ccco3)c(C=NCc3ccco3)c(=O)n2c1	inconclusive: 17.8 µM [activator, partial curve, poor fit]
N#Cc1ccc(C(=O)Nc2ccc(Cl)c(-c3nc4cc(Cl)ccc4o3)c2)c(F)c1	inactive
Cc1ccc(Nc2nc(N)c(C#N)c(CC#N)c2C#N)cc1	inactive
Clc1ccccc1-c1nnc(-c2ccccc2Cl)o1	active: 12.6 µM
O=C(NCCCN1CCN(CCCNC(=O)c2ccc3c(c2)OCO3)CC1)c1ccc2c(c1)OCO2	inconclusive: 0.01 µM [activator, full curve, poor fit]
Oc1ccccc1C=Nc1ccccc1-c1nc2ccccc2[nH]1	active: 31.6 µM
Cc1ccc(-n2[nH]c(C)c(C=Nc3ccc4[nH]c(=O)[nH]c4c3)c2=O)cc1	inactive
O=C(Nc1ccccc1)c1cc(-c2ccccc2Cl)no1	inconclusive: 12.6 µM [activator, partial curve, poor fit]
c1ccc(CSc2ncn(-c3ccccc3)n2)cc1	active: 14.1 µM
Cc1ccc(S(=O)(=O)N(CC(=O)Nc2ccc(Cl)c([N+](=O)[O-])c2)C2CCCCC2)cc1	inconclusive: 0.005 µM [activator, full curve, poor fit]
CC(C)NC(=O)Cn1ncn2c(cc3cc(F)ccc32)c1=O	inactive
COc1ccc(NC(=O)c2ccco2)cc1NC(=O)c1cccnc1	inconclusive: 0.708 µM [activator, single point]
CC(C)(C)NC(=O)Cn1cc(C#N)c2cc(Br)ccc21	inconclusive: 0.501 µM [activator, full curve]
COc1ccc(-c2cc(CS(=O)(=O)c3ccccc3)on2)cc1	active: 17.8 µM
CN1C(=O)CSc2ccc(NC(=O)Nc3ccccn3)cc21	inconclusive: 35.5 µM [activator, single point]
Cc1ccsc1/C=C1/SC(=O)N(CC(=O)N2CCOCC2)C1=O	inconclusive: 0.501 µM [activator, full curve, poor fit]
Cc1ccc(NC(=O)CN2C(=O)C(c3ccccc3)=NC2(C)C)cc1C	inactive
Cc1cc(NC(=O)c2cnn3cccnc23)no1	inconclusive: 20 µM [activator, partial curve, poor fit]
COC(=O)c1sccc1N/N=C/c1cccc(Oc2ccccc2)c1	inconclusive: 4.47 µM [activator, full curve]
Cc1cc(S(=O)(=O)Nc2c(C)ccc3nsnc23)ccc1F	inconclusive: 5.01 µM [activator, full curve, poor fit]
N#C/C(=C\c1ccc(O)c(O)c1)C(=O)N1CCCC1	inconclusive: 22.4 µM [activator, partial curve]
